Experimental data from the supplement of paper PMC3334620.
In all, about 33,000 sequences were measured (“E-score (-0.5 to 0.5)”: median about -0.032, highest 2% from about 0.36 on). Some of the results follow.

Target: T1, Sko1 (UniProt Q02100)
T1 sequence: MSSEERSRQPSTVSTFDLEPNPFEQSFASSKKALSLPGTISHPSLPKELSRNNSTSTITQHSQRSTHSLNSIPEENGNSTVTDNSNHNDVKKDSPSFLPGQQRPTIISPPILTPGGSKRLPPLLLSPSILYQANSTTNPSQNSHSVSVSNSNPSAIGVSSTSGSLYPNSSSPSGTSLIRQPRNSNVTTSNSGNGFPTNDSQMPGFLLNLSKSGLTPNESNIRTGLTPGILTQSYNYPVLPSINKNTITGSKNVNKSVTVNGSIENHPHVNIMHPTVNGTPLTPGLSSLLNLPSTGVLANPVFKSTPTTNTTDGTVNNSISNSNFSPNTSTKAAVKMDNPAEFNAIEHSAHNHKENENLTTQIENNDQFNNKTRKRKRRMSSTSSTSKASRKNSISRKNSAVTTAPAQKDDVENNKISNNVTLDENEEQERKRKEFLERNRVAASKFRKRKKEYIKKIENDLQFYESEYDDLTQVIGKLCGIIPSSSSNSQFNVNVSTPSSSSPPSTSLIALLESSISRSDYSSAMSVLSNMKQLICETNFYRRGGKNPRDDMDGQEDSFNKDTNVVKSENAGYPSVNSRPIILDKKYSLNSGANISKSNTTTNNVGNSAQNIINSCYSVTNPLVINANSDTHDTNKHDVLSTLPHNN
Assay: PBM E-score (8-mer binding enrichment) (E-score (-0.5 to 0.5)); higher = stronger / more preferred TF binding; most listed sequences are background and not binding sites
Settings: protein concentration: 200 nM; construct: GST-full length
Procedure, shortened: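 Each ungapped eight-base word and its reverse complement, pooled, received an E-score from the Universal PBM Analysis Suite. Underlying scans, normalised with masliner, recorded fluorescent anti-GST bound to GST-tagged yeast transcription factors. These were applied at about 100-200 nM to universal all-10-mer Agilent arrays double-stranded by primer extension.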

Sequence | PBM E-score
CCCGAAGC | -0.257
TACTGCCA | -0.0579
CGCGGGAG | -0.215
TCTTCTCA | -0.00235
ATTAAAAC | 0.129
GCGCCAAC | -0.0525
ACCAGAGT | -0.256
CCGCCGGA | -0.239
GCTCACGA | -0.0423
GATTGTCC | -0.196
ATGCGTGA | 0.137
ATGCTGTC | 0.0727
AACCAAGC | -0.0985
ACAGTTAC | 0.102
AACCACGC | 0.111
ACAATATC | 0.207
CGGTCGGA | -0.233
CTATGGTA | -0.155
GACCATAA | -0.108
CGCGTACA | 0.209
AGTGCGTC | 0.225
TAAAGGAA | -0.0286
CGTAGACC | 0.04
AGCGTTCG | -0.105
ATAGGGCG | -0.12

Sequence | PBM E-score
ATAAGCCA | 0.105
ACAGGTGG | -0.165
CGCCCACA | 0.0694
ATGCTACA | -0.0758
AAGGTAGC | -0.229
CCTGCACG | 0.00316
CGTAAGAA | 0.349
CTATTGAC | 0.131
AGAGCTGC | -0.211
AGTATAGC | 0.0553
GATAATCC | -0.195
AAGTCCCT | -0.299
GGAGAAGA | -0.152
TCCCCTCA | -0.118
CTTTGCTA | 0.103
GCGTTTAC | 0.00205
CGCCGTAA | -0.055
CTGCTCGA | -0.256
AAACTCGA | -0.11
CGCGTGCC | -0.0538
CAGAAGAC | 0.165
AGGTCCAG | -0.16
TAGCCCCA | -0.118
ACCATATG | 0.029
ACACATGG | 0.00953

Sequence | PBM E-score
CCCCCTCC | -0.245
GTGAGGCA | 0.00089
CTAAGGAA | 0.00302
ATGTGCCC | -0.0472
GAGAACGC | -0.0995
CCTGAGTC | -0.25
ACCATGTA | 0.142
ATTTGGTG | 0.0872
ATTCCGTA | 0.246
ATCACCGG | -0.179
CTCGCCAA | -0.192
GCTTAAAC | -0.133
CCGCATAG | -0.207
CATTACTC | 0.184
AGGAGCAG | -0.285
AAACCATT | 0.0296
GTAATGAA | 0.281
ACGCACCC | 0.156
CTCTGTAC | -0.238
ATCAGAAT | 0.0915
CTACGTTC | 0.272
AGCCCGCC | -0.17
GAACGCTC | -0.17
AGCAATCA | 0.0445
ATATGACC | 0.00457

Sequence | PBM E-score
CTTCATGA | 0.0426
CAGCATGG | -0.0841
GAAATACC | -0.0276
GAAGCCCC | -0.274
AGGAGAGG | -0.274
AGGCAGGG | -0.179
ATAGGAAT | 0.0126
CAGCGAGC | 0.0417
GCCCCGCC | -0.13
CCTTCATA | 0.0985
CGTCGTGA | 0.15
ACTAACGA | 0.108
AGGGGACT | -0.211
ACCTTTGG | -0.313
GAGTTAGC | -0.0138
GTGCGCAA | 0.114
CGAACGCG | -0.0614
TCCCTCGA | -0.331
CGTTTCGC | 0.0566
GCAACTAA | 0.0507
GTCGTCTA | 0.151
CAAGAAGC | 0.0798
AGGCCTCA | -0.209
AGTAAACA | 0.0928
CACCCGGA | -0.145

Sequence | PBM E-score
CCCCGGAC | -0.326
CAACGGAG | -0.2
CTTACAGC | 0.11
CCACTCAG | -0.212
CTTACTAC | 0.0969
ATCGCCCC | -0.243
GGAGGGAC | -0.217
CAGGACTG | -0.152
ATTTTTGG | -0.147
ACTAGTGC | -0.13
ACACTAAC | -0.0007
CACACCCA | 0.0404
CGATAGAC | -0.0874
GTCTCCAA | -0.028
GTACTAAA | 0.174
CCTCCTAC | -0.194
CCGACGTA | 0.415
AGTGCACA | -0.263
AATATGGC | 0.0296
AGCCTGTC | -0.21
CAAAATGC | 0.0774
CCATGAGA | -0.0921
GCTATGTA | 0.00334
AGGGTTAT | -0.0777
ATCAGTGG | -0.0843

Sequence | PBM E-score
GTGGGATA | -0.0827
ACATTGGG | -0.126
ACCAGGCA | -0.298
ATTCTACA | 0.0629
AAATTGGG | 0.0184
AGAGGGCC | -0.304
TACTTAGA | 0.0287
CTAACGCC | -0.0831
AGCTCTCC | -0.231
CTTTTATA | 0.056
TACAACCA | 0.0683
ACGAATCC | 0.162
CCTTACAG | -0.0733
CCGCAGTC | -0.114
TTGATCAA | 0.205
ACGGACGA | 0.0958
GTTGCGGA | 0.0145
CAGTAACA | 0.0121
CCAAGCCC | -0.212
AGCATCTG | -0.103
ATGTTTTA | 0.171
TAACCTGA | 0.00764
AGAGAGCC | -0.253
CCACGGTA | -0.195
ACGCGCTG | 0.0381

Sequence | PBM E-score
AATGGGGA | -0.0924
GTCACCAA | 0.193
TGGGGGAA | -0.169
GACACAAC | -0.0293
AAACAGTA | 0.14
GCATATGA | 0.147
CGAGCCTA | -0.052
AAGAGTTA | 0.0657
AATGGGCG | -0.114
CCTTTAGC | -0.148
CATACCGC | 0.0364
AGCTCGTG | -0.0961
GCCTCCAC | -0.0544
AAACGTTT | 0.275
CTGCACGA | -0.121
ACCGATCC | -0.218
GAGGAGAC | -0.361
CTGTGCCC | -0.185
AGTGTTCA | 0.0288
ACCCGTCC | -0.237
GAAACCAA | -0.045
ACGTGCTG | 0.337
AAGCGCGC | 0.0289
TCCTAGAA | -0.196
ATAGGGCC | -0.211

Sequence | PBM E-score
TCCGGGCA | -0.282
CCGAGTTC | 0.00182
CGATACGC | 0.188
CCTCGATC | -0.22
CACCAATC | 0.0369
ACGAGTCT | -0.154
CTGGCAGA | -0.122
CACGTTAG | 0.2
ACAGCGGT | -0.21
GGCGTTAA | -0.0249
GTCAACTA | 0.152
ATCACGGA | 0.126
ACAGAGCC | -0.198
CCGTGTCG | -0.319
ACTCGATA | 0.08
CATCGAAA | 0.111
AATGTCGG | 0.0603
CCCCTATA | -0.105
AATACGCG | 0.287
TATCATCA | 0.272
GAATCAGC | 0.0296
ATATTGGG | -0.146
CCAAAGCG | -0.105
CATGTCAA | 0.208
AGTTAACT | 0.112

Sequence | PBM E-score
AATGACCC | -0.124
ATCTCAAC | 0.168
ACAGGGTG | -0.322
CCCTATTA | 0.00185
AGAGCGCG | -0.0798
CAGGCCAA | -0.129
CAATGAAC | 0.0222
ACACCACG | 0.063
ACCATGAG | -0.117
CTATCGTA | 0.256
CAATTTTC | -0.0176
AGATCCTC | -0.297
AGGGGGCA | -0.346
ATCTGTTA | 0.175
CGATCCCA | -0.12
AAGAAACT | 0.0413
AACATAAT | 0.204
ATTATGGC | 0.196
CAAAATGA | 0.186
